According to PubChem BioAssay (NCI):
Where “and” joins values, the source holds several entries; their conditions need not be identical. Equal values may be shown once.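 96-well plates; 48 h exposure; 5 concentrations. Endpoints by linear interpolation between flanking doses. Not reached: highest tested concentration assigned. The concentration for 50% growth inhibition is given as GI50. TGI: total growth inhibition.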 Square brackets hold non-standard residues; d marks the D form. Peptide text beside a SMILES is read from it. * marks the point of attachment. ξ: configuration not given here. ξD = NC(CC(=O)O)C(=O)O; Boc = CC(C)(C)OC(=O)*; Aib = CC(C)(N)C(=O)O; OBn = c1ccc(CO*)cc1

What follows are molecules tested on NCI-H322M lung (assay: inhibition of tumour cell growth, NCI panel, 48 h).

SMILES	TGI	GI50
C[C@]12Cc3conc3C(O)=C1CC[C@@H]1C2CC[C@@]2(C)C1CC[C@@H]2O (stereo not given in full)	89 µM	–
CSc1nc(-c2ccccc2)[nH]c(=O)n1	> 100 µM	–
O=S(=O)(c1ccccc1)C1CC(c2nc3ccccc3[nH]2)=NO1 (stereo not given)	> 100 µM	–
O=C1C(Cl)C(c2ccccc2Cl)N1n1cnc2ccccc2c1=O (stereo not given)	> 100 µM	–
Cc1nc2ccccc2c(=O)n1/N=C(\N=Nc1ccccc1)c1ccccc1Cl	> 100 µM	–
COc1cc2c(/C=C3\C(=O)N(C)c4ccccc43)c[nH]c2cc1C	> 100 µM	8.18 µM
COc1cc([C@@H]2c3cc4c(cc3[C@@H](NCc3ccccc3F)C3COC(=O)[C@@H]32)OCO4)cc(OC)c1O (stereo not given in full)	> 100 µM	–
N#Cc1c(-c2ccc([N+](=O)[O-])cc2)c2c([nH]c1=O)-c1ccccc1CCC2	> 100 µM	–
C=C(CN(C)C)C(=O)c1ccccc1OC	> 100 µM	–
N#CC(Sc1ccccc1)C(N)=O (stereo not given)	> 100 µM	–
COC(=O)[C@H](Cc1cn(C)cn1)NC(=O)[C@H](CC(C)C)NC(=O)Nc1cc(C(F)(F)F)cc(C(F)(F)F)c1	> 10 µM	> 10 µM
COc1ccc(C2(Cl)C(Cl)(C(F)(F)F)C2(Cl)C(F)(F)F)cc1 (stereo not given)	29.8 µM	–
COc1ccc(O)c(/C=N\Nc2ccccc2)c1	> 100 µM	–
Cn1c(-c2ccccc2)cc(-c2ccc3c(c2)OCO3)c1-c1ccsc1	> 100 µM	–
COc1cccc([C@@H]2C/C(=N\NC(=O)C(=O)N[C@@H](C)c3ccccc3)c3ccccc3N2)c1	> 100 µM	–
Nc1nc(-c2cccnc2)cc(-c2cc(-c3cccnc3)nc(N)n2)n1	> 100 µM	–
COc1cc2c(cc1OC)[C@@H]1C(=O)c3ccc4c(c3O[C@@H]1CO2)C[C@H](C(C)C)O4	> 100 µM	27.2 µM
Cc1cc(C)n(-c2nc(-n3nc(C)cc3C)nc(-n3nc(C)cc3C)n2)n1	> 100 µM	–
O=CCCn1[nH]c(=O)ccc1=O	> 100 µM	–
COc1ccc2cc3c4cc(OC)c(OC)cc4ccn3c2c1	> 100 µM	–
COC(=O)c1c2c(c(C)[n+]([O-])c1C)C(=O)C(NCc1ccccc1)=CC2=O	8.15 µM	2.59 µM
O=S1Nc2cccc(C(F)(F)F)c2S1 (stereo not given)	> 100 µM	–
COc1ccc2c(=O)c3ccoc3[nH]c2c1	> 100 µM	–
O=C(Nc1ccc(Cl)c(C(F)(F)F)c1)Nc1ccc(-c2cccnc2)cc1N1CCC(CO)CC1	78.9 µM	3.1 µM

SMILES	TGI	GI50
Oc1ccc(Br)cc1C=Nc1c(NC2CCCCC2)oc2ccc(Br)cc12	> 100 µM	–
O=C(NCCCCCCCCNC(=O)Nc1cccc2ccccc12)Nc1cccc2ccccc12	> 100 µM	–
c1cc[c]([Ge]([O]c2cccc3cccnc23)([c]2ccccc2)[c]2ccccc2)cc1	19.7 µM	6.73 µM
COc1cc(-n2cc(-c3ccc(Cl)cc3)n(-c3ccccc3)c2=O)cc(OC)c1OC	> 100 µM	48.7 µM
CC(C)C1=Cc2ccc3c(c2C(=O)C1=O)CCCC3	24.8 µM	–
Nc1nc(Sc2ccc([N+](=O)[O-])c3nonc23)c2ncn(C3OC(CO)C(O)C3O)c2n1 (stereo not given)	> 100 µM	> 56.9 µM
Cc1[nH]c2ncn3[nH]c(=S)nc3c2c1Cc1ccccc1	> 100 µM	–
Cn1cc(NC(=O)Nc2cc(C(=O)Nc3cc(C(=O)Nc4ccc5cc(S(=O)(=O)O)cc(S(=O)(=O)O)c5c4)n(C)c3)n(C)c2)cc1C(=O)Nc1cc(C(=O)Nc2ccc3cc(S(=O)(=O)O)cc(S(=O)(=O)O)c3c2)n(C)c1	> 100 µM	–
O=C(COc1ccccc1)NNc1ccccc1	> 300 µM	> 300 µM
CC(C)N(C(=O)C12C3C4C5C3C1(C(=O)O)C5C42)C(C)C (stereo not given)	> 100 µM	–
Cc1[nH]c2ccccc2c1CO	73.9 µM	19.2 µM
COc1ccccc1NC1Oc2cc3c(cc2C(c2cc(OC)c(OC)c(OC)c2)C1C)OCO3 (stereo not given)	> 100 µM	–
ClCc1ccccc1Cn1cnc2nc(Cl)nc(Cl)c21	19.7 µM	5.57 µM
Cc1cccc2c(=O)c3c(sc12)c(NCCCNCCO)nc1ccccc13	3.15 µM	1.66 µM
C/C(=C/CC[C@](C)(OC1OC(CO)C(O)C(O)C1O)[C@H]1CC[C@]2(C)[C@@H]1CC[C@@H]1[C@@]3(C)CC[C@H](O)C(C)(C)[C@@H]3C[C@H](O)[C@]12CO)CO (stereo not given in full)	> 100 µM	–
COc1cccc(C2=NC(C(C)C)CO2)c1OC (stereo not given)	> 100 µM	–
O=C1/C(=C/c2ccccc2Cl)COc2ccc(Br)cc21	> 100 µM	–
CC(=O)N1c2ccccc2N(C(C)=O)C1c1ccc(C2N(C(C)=O)c3ccccc3N2C(C)=O)[nH]1	> 100 µM	–
COC(=O)C(Cc1nc2ccc(Cl)cc2[nH]c1=O)C(=O)C(=O)Nc1cc(C)ccc1C (stereo not given)	> 100 µM	–
Cc1c(-c2ccccc2)c(C#N)c2nnn(-c3ccc(Cl)cc3)c(=O)n12	> 100 µM	–
COc1ccc(-c2cnc(-c3ccc(OC)cc3)n2-c2cc(OC)c(OC)c(OC)c2)cc1	70.3 µM	28.2 µM
CCOC(=O)c1c(NN2CCN(CC(F)(F)F)CC2)oc(/C=C2\C=Nc3ncccc32)c1O	55.5 µM	9.27 µM
N#Cc1ccc(C2ON=C(c3ccccc3)N2C23CC4CC(CC(C4)C2)C3)cc1 (stereo not given)	> 10 µM	–
O=S(O)O.O=S(O)O.[Co].[NH2-].[NH2-].[NH2-].[NH2-]	> 100 µM	> 100 µM

SMILES	TGI	GI50
CC(=O)O[C@@H]1c2c(c3c(=O)c4cccc(O)c4c(=O)c=3c2=[N+]=[N-])[C@H](OC(C)=O)[C@@H](OC(C)=O)[C@]1(C)O	1.32 µM and 2.03 µM	0.784 µM
C/C(=N\O)c1ccc(OCc2cc(C(F)(F)F)cc(C(F)(F)F)c2)cc1	> 100 µM	–
COc1cc2c3c(n(CCCN=[N+]=[N-])c(=O)c2cc1OC)-c1ccccc1C3=O	> 100 µM	14.5 µM
CCOC(=O)c1cc(=O)c2cccc3c2n1CCS3	> 100 µM	–
COc1cc(/C=N/NC(=O)c2c(Cl)c(Cl)c(Cl)c(Cl)c2-c2nc3ccc(C(=O)c4ccccc4)cc3[nH]2)ccc1O	> 100 µM	–
Cn1cnc([N+](=O)[O-])c1S(=O)(=O)Oc1ccc(Cl)cc1	> 100 µM	62.9 µM
Cc1nnn(C)c1-c1cnc2c3ccc(C(C)(C)O)cc3n([C@H](c3ccccc3)C3CCOCC3)c2c1	> 100 µM	0.0588 µM
Cc1cccc2c(N)c3cccc(C(=O)NCC[N+](C)(C)Cc4ccccc4[N+](=O)[O-])c3nc12	> 59.2 µM	–
CC[C@@]1(O)CC(OC2CC(N3CCOCC3)C(O)C(C)O2)c2c(O)c3c(c(O)c2[C@H]1O)C(=O)c1cccc(O)c1C3=O (stereo not given in full)	3.36 µM and 3.9 µM	–
CCC1C(NC(=O)OC)C(=O)N1[C@@H](C)c1ccccc1 (stereo not given in full)	> 100 µM	–
CCOc1ccc(N(CC(=O)N2CC(=O)Nc3cc(C)c(C)cc32)C(C)=O)cc1	> 100 µM	–
CCCN(CCC)c1ccc(/C=N/NC(=O)c2cccnc2)c(C)c1	40.9 µM	17.7 µM
CC(C)(C)OC(=O)NC(CC(=O)OCc1ccccc1)C(=O)NC(C)(C)C(N)=O (stereo not given) (Boc-[ξD](OBn)-[Aib]-NH2)	> 100 µM	–
O=C1Nc2cccc(Cl)c2/C1=C\c1cccnc1	33.8 µM	–
CCCCCCOC(=O)CC1=C(C)/C(=C/c2[nH]c(-c3ccc[nH]3)cc2OC)N=C1C	2.16 µM	0.538 µM
CCn1nc(C2CCN(C(=O)CCO)CC2)nc1-c1cnc(N)c(-c2nnc(C(C)(C)C)o2)n1	> 100 µM	2.51 µM
CC1(O)CC2C(CC1SC1CC3C(CC1(C)O)C3(C)C)C2(C)C (stereo not given)	> 100 µM	–
C[C@@H]1CC[C@@]2(C)OC(c3ccccc3)[C@H](CO)N2C1=O (stereo not given in full)	> 100 µM	–
O=c1[nH]c(-c2ccc(Cl)c(Cl)c2)cn1-c1ccc(Cl)cc1	80.4 µM	26.5 µM
COc1ccc(C)c2sc(N(Cc3cccnc3)C(=O)c3ccc(C#N)cc3)nc12	> 100 µM	> 100 µM
COc1c(Sc2c(SCSc3cnc4ccccc4c3Sc3cnc4ccccc4c3OC)cnc3ccccc23)cnc2ccccc12	> 100 µM	–
CC(=O)OCC1OC(SC2=N/C(=C\c3ccc(Br)s3)C(=O)N2c2ccccc2)C(OC(C)=O)C(OC(C)=O)C1OC(C)=O (stereo not given)	> 100 µM	–
O=C1CCCc2ccc([N+](=O)[O-])c(O)c21	> 100 µM	–
CCOC(=O)C1=C(C(=O)OCC)SC2(S1)C(C(=O)OCC)=C(C(=O)OCC)Sc1c2ssc1=O	23.2 µM	–

SMILES	TGI	GI50
CN(C)c1ccc(N=C2N=C(Nc3ccccc3)C(=Nc3ccccc3)S2)cc1	> 100 µM	–
C=C(C)CC(C(=O)O)c1ccc(C)cc1 (stereo not given)	> 100 µM	–
C[N+]1(C(CO)Cc2c[nH]c3ccccc23)Cc2ccccc2C1 (stereo not given)	> 100 µM	–
O=C1CCC2(c3ccc(Cl)cc3)Nc3ccccc3N12 (stereo not given)	> 100 µM	–
CCS1=C2C(=O)CC(C)(C)CC2=Nc2ccccc21 (stereo not given)	> 100 µM	–
COc1ccc(OC)c(N2CC(O)=C(c3nc4ccccc4s3)C2=N)c1	> 100 µM	74.7 µM
COCN1C(=O)[C@@H]2C[C@@H](O)CN2C(=O)c2ccccc21	> 100 µM	–
CC(=O)NC(CCCNC(=O)N(C)N=O)C(=O)NCc1ccccc1 (stereo not given)	> 100 µM	–
N#CC(NNC(=O)Cc1ccccc1)c1ccc([N+](=O)[O-])cc1 (stereo not given)	> 100 µM	–
O=C(N/C(=C\c1ccccc1)c1nc2ccccc2c(=O)o1)c1ccccc1	> 100 µM	–
CC1OC(n2cc(F)c(=O)[nH]c2=O)CCC1=O (stereo not given)	> 100 µM	–
COC(=O)CCc1n(Cc2ccc3ccccc3c2)c2ccccc2[n+]1Cc1ccc2ccccc2c1	5.82 µM	1.76 µM
O=S(Cc1ccccc1)c1ccccc1Cn1cccc1 (stereo not given)	> 100 µM	–
CC1(C)C(=O)/C=C\C(=O)C(C)(C)C2=CC=C(O2)C(C)(C)C(=O)C(Br)C(Br)C(=O)C(C)(C)C2=CC=C1O2 (stereo not given)	> 100 µM	–
COc1cccc(/C=N\NC(=O)c2ccncc2)c1O	> 100 µM	5.14 µM
O=C1OC(c2ccc(O)cc2)(c2ccc(O)cc2)c2ccc(Cl)c3cccc1c23 (tested in a mixture with another compound)	30.5 µM	–
CCOC(=O)c1c(CN2CCNCC2)nc2ccc(Cl)cc2c1-c1ccccc1	29.8 µM	–
COc1ccc2c(n1)Sc1nc3ccccc3nc1N2	> 100 µM	–
O=C(NC(CS)C(=O)O)c1c2ccccc2nc2ccccc12 (stereo not given)	> 100 µM	–
CC(=O)OCC12CC(CC1OC(C)=O)c1ccccc12 (stereo not given)	> 100 µM	–
COc1cc(CSc2nc3ccc(Cl)cc3c(=O)n2Cc2ccccc2)cc(OC)c1OC	> 100 µM	10 µM
CCNCC(=O)Nc1ccc2c(c1)C(=O)c1ccc(NC(=O)CNCC)cc1C2=O	6.56 µM	–
Cc1csc2nc(-c3cccc([N+](=O)[O-])c3)c(/C=N/N=C(N)N)n12	3.08 µM	–
COc1ccc(C2c3ccc4ccccc4c3Oc3ncn(CCCn4ccnc4)c(=N)c32)cc1OC (stereo not given)	17.5 µM	4.98 µM
